Results on 51 molecules are retold here after paper PMC12040169 (PLOS Biology, 2025).

This is one part of the list.

The test system of the test is T1, C. trachomatis L2/434/Bu expressing GFP (CTL2-GFP).
T1 construct: L2/434/Bu GFP intracellular growth in HeLa cells
On the set-up: species or system HeLa; C. trachomatis total inclusion area by high-content imaging, normalised to DMSO. Particulars: total inclusion area; 28.5 h, 10 µM; inhibitor. The essentials: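 Bulk GFP and resorufin signals were read first. Wells were then fixed, stained with Hoechst and imaged to detect GFP inclusions and host nuclei. MICs followed the previously described calculation.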
In the case of `c1ccc2c(CCNc3nccnc3-c3ccoc3)c[nH]c2c1` [CBK036743], the “% of control remaining” value was determined as 73.3471.

For the molecule `O=C(c1cncs1)N1CCn2nc(C(O)Cc3ccccc3)cc2C1` (stereo not drawn) [CBK306754], the “% of control remaining” value came out at 76.6053.

With `O=C1N[C@@H](CC2CCCCC2)C(=O)N2CCN(C(=O)c3cccc(F)c3)C[C@H]12` [CBK289599], the “% of control remaining” value came to 96.1462.

In the case of `CC1CCc2nc(NC(=O)C3CN(S(=O)(=O)c4ccc(F)cc4)C3)sc2C1` (stereo not drawn) [CBK286004], the “% of control remaining” value was found to be 94.2831.

As for `O=C(Nc1ccccc1-c1ccccc1)c1cc(-c2ccncc2)nc2ccc(Cl)cc12` [CBK267759], the “% of control remaining” value is 93.9179.

Turning to `Cc1ccc2[nH]c3c(c2c1)CC(NS(=O)(=O)c1c(N)noc1C)CC3` (stereo not drawn) [CBK306270], the “% of control remaining” value was 24.4988.

`O=C(O)c1ccc(CN2CCOCC2)o1` [CBK261426C]: the “% of control remaining” value came to 93.0567.

Regarding `COC(=O)c1cccc(CN2CCC3(CC2)OCCc2c3[nH]c3ccc(F)cc23)c1` [CBK040326], the “% of control remaining” value is 93.241.

Turning to `Cc1cc(NC(=O)C2CCN(C(=O)CCSc3ccccc3)CC2)no1` [CBK304329], the “% of control remaining” value is 63.468.

As to `CSCCC(C(=O)O)N1CNC(=S)NC1` (stereo not drawn) [CBK011382], the “% of control remaining” value was determined as 47.7465.

Take `Cc1ccc(NC(=O)N2CCCC(C(=O)O)C2)cc1` (stereo not drawn) [CBK161371]: the “% of control remaining” value was 110.442.

For the molecule `O=C(c1ccccc1)c1ccc(S(=O)(=O)N2CCCN(Cc3cc(F)c(F)c(F)c3)CC2)cc1` [CBK062777], the “% of control remaining” value was 92.7916.

Consider `O=C(O)C1CSC(c2ccccc2)N1` (stereo not drawn) [CBK261008], for which the “% of control remaining” value is given as 88.9782.

With `Cc1ccc(C(=O)N2CCN(C(=O)CN3CCN(C)CC3)C2)cc1` [CBK024841C], the “% of control remaining” value is recorded as 95.3619.

As for `O=C(O)c1cccc(NS(=O)(=O)c2ccc(-c3cnco3)cc2)c1` [CBK155726], the “% of control remaining” value came to 59.7581.

For the molecule `N=c1n(CCN2CCCC2)c2ccccc2n1CC(O)c1ccc(Cl)c(Cl)c1` (stereo not drawn) [CBK263448C], the “% of control remaining” value is 70.2674.

With `CC(C)CC(=O)N[C@@H](C)Cn1nc(-c2cccs2)oc1=O` [CBK284336], the “% of control remaining” value is listed as 61.0752.

For `CCN(CC)C(=O)c1ccccc1NS(=O)(=O)c1ccc(OC)c(OC)c1` [CBK045423], the “% of control remaining” value came to 54.7738.

In the case of `N#Cc1ccc(Oc2ccc(C(=O)NCC(=O)O)cc2)cc1` [CBK286579], the “% of control remaining” value is on record as 77.6487.

On to `Cc1nn(-c2ccccc2)c(Cl)c1C1NC(=O)c2c(sc(C)c2C)N1` (stereo not drawn) [CBK288086], for which the “% of control remaining” value turned out to be 37.0846.

Consider `CC(C)c1csc(NC(=O)CC2CCN(S(=O)(=O)c3cccc(F)c3)CC2)n1` [CBK285902], for which the “% of control remaining” value worked out at 117.643.

Turning to `Cc1nnc(C(C)N2CCN(Cc3noc(C(C)(C)C)n3)CC2)o1` (stereo not drawn) [CBK305171], the “% of control remaining” value came to 118.339.

For the molecule `Oc1ccccc1/C=N/CC(O)C/N=C/c1ccccc1O` [CBK261112], the “% of control remaining” value is on record as 98.4831.

For `O=C(NCCN1CCOCC1)c1cc(-c2ccc(Cl)cc2Cl)nc2ccccc12` [CBK265379], the “% of control remaining” value came to 113.458.

As for `Cc1ccc(-n2c(SCC(=O)Nc3sc4c(c3C#N)CCCC4)nnc2-c2ccccc2O)c(C)c1` [CBK268692], the “% of control remaining” value was found to be 103.532.

Take `CCCNc1nc(Cl)nc(NC(C)(C)C)n1` [CBK091674]: the “% of control remaining” value is reported as 61.0456.

Turning to `Cc1ccc(C(O)CN2CCC(O)(c3ccc(F)cc3)CC2)cc1` (stereo not drawn) [CBK283309], the “% of control remaining” value was 97.7642.

For `O=C(NCc1ccccc1)c1ccnc2ccccc12` [CBK200191], the “% of control remaining” value is on record as 95.5907.

Take `CS(=O)(=O)c1ccc(CN2C[C@@H]3OCC(=O)N(c4ccccc4)[C@@H]3C2)cc1` [CBK289237]: the “% of control remaining” value amounted to 97.3945.

Take `Cc1nn2c(CN(C(=O)COc3ccccc3)c3ccccc3)nnc2c2ccccc12` [CBK268036]: the “% of control remaining” value is listed as 96.3436.

As for `C/C(=N\NS(=O)(=O)c1ccc(C)cc1)C(C)(C)CC(=O)O` [CBK263601], the “% of control remaining” value was determined as 80.1578.

On to `O=C(c1cccc(C(F)(F)F)c1)N1CCCCCC1` [CBK074291], for which the “% of control remaining” value amounted to 127.036.

As for `O=C(NCCc1cccs1)Nc1cccc(CN2CCCCC2)c1` [CBK306882], the “% of control remaining” value was found to be 19.2671.

For the molecule `Oc1cccc(-c2nccnc2NCc2cccs2)c1` [CBK037343], the “% of control remaining” value is given as 97.2636.

On to `COc1ccc(C(=O)Nc2ccccc2OC2CCNCC2)cc1` [CBK050282T], for which the “% of control remaining” value came out at 103.625.

Take `CC(=O)N1N=C(COc2ccc(C)cc2)OC1c1ccc(Br)cc1` (stereo not drawn) [CBK294396]: the “% of control remaining” value is 92.6762.

With `CC1CN(C(=O)NC2CC2)C(C)CN1CCCC(c1ccc(F)cc1)c1ccc(F)cc1` (stereo not drawn) [CBK024927C], the “% of control remaining” value was found to be 82.4665.

`c1csc(C2NN=C3C4CCN(CC4)C32)c1` (stereo not drawn) [CBK021915]: the “% of control remaining” value worked out at 50.125.

For the molecule `COc1ccc(C(=O)N2CCC3(CCN(C(=O)Cc4cc(C)no4)C3)C2)cc1OC` (stereo not drawn) [CBK131784], the “% of control remaining” value stood at 92.4865.

For `c1ccc(OCCOc2cccnc2N2CCNCC2)cc1` [CBK200000C], the “% of control remaining” value came out at 107.92.

As to `CCCCN(C)c1c(C)nc2c(OCC3CCCCO3)cccn12` (stereo not drawn) [CBK147180], the “% of control remaining” value is listed as 106.703.

For `CN(Cc1cccc2ncccc12)C(=O)c1cc(C2CC2)nn1C` [CBK282537], the “% of control remaining” value was found to be 109.931.

As for `Nc1ncc(Br)nc1N1CCC[C@@H]1CO` [CBK085450], the “% of control remaining” value is reported as 105.615.

As for `COc1cc(/C=N/NC(=O)CSc2n[nH]c(=O)[nH]c2=O)cc(OC)c1O` [CBK263527], the “% of control remaining” value was found to be 110.117.

In the case of `CC[C@H](C)[C@H](NC(=O)C1CCN(S(=O)(=O)c2ccc(Cl)c(C(F)(F)F)c2)CC1)C(=O)O` [CBK297117], the “% of control remaining” value is on record as 87.3725.

Take `Cn1cnnc1SCCNC(=O)N1CCCN(Cc2cccs2)CC1` [CBK307485]: the “% of control remaining” value was 80.5768.

In the case of `NCCNC(=O)c1ccc(-c2cccc(C(F)(F)F)c2)o1` [CBK115927C], the “% of control remaining” value worked out at 115.052.

Take `O=[N+]([O-])c1c(N(CCO)CCO)cc(Cl)c2nonc12` [CBK261446]: the “% of control remaining” value is on record as 99.4784.

As for `NC(=O)c1cccc(-n2cc(-c3ccsc3)nn2)c1` [CBK113076], the “% of control remaining” value stood at 108.741.

Consider `C=CCn1c(SCC(=O)Nc2nc3ccc(OCC)cc3s2)nc2cc(C(=O)O)ccc2c1=O` [CBK297520], for which the “% of control remaining” value was 56.0912.

Consider `C=C(C)Cn1c(-c2ccccc2C)nnc1S(=O)(=O)CC(C)C` [CBK200074], for which the “% of control remaining” value is listed as 120.689.
